# Some of the results follow.
# B1: a L Fucosidase (Streptosporangium roseum), D2B1P1_STRRD (protein)
# chain: MRRKLLLVPAVGLLVIGSIFATQPVASADTPPVYEPTVESLNSHPVPQWFNDDKFGIFIHWGAYSVPAWGPRGSYAEWYGNYMNAGGSATNAHHKATYGQDFNYDAFLQQWKAEKFDPADWVKLFKDAGAKYFVLTSKHHEGMALWDSKSSGRDSVDLGPGRDLAKELFDAARKDEAKLKAGFYYSLYEWYNPAYTGRPATNPYTGAEIPYTGAPGGGDYVKDYMLPQMRELIDGYDPDIIWCDGQWEKPASYWNTAGVIADYYNKALNSGKEVAVANRCKIQSGNLDSPELDFQTPEYTVKPDIDPVKWESSRGIAHSYGYNQNEPEEDHLTSDQLVDSLVDIVSKNGNLLLDIGPKADGTIPEIQRQRLLDIGAWLKANGEAIYGTTYWNRAEEKGGPDDVRYTAKDATLYATALKWPGEQLTLGADLPVDHSTRITMLGSGARLSWSRDEQGRVVVNTPQEAGKHAYVFKIETPGVRSLLRTSSSLAKEIAPGRTISGELTVTNPGKRHTPATKLSLTVPQGWTATLGAPRVRPLGPGESVKVPISVSAPEGVAPAPYTLGLYQRTGRMGTTTALPLTVNRPNLSLGKPATQKSTGYDAPASRAVDGNTGGDWSAGSTTHTAEPEKQAWWQVDLGASARLDSVDVWNRLDCCADRLKDFWVMASDQPFTTDDLDQARTAPGVTAVHVGEQAGSPSKVKLPEGTRGRYVRIQLASPSNPLSLAEVQVRGSMARPNLSLGKPATQKSTGYDAPASRAVDGNTGGDWSAGSTTHTAEPEKQAWWQVDLGASARLDSVDVWNRLDCCADRLKDFWVMASDQPFTTDDLDQARTAPGVTAVHVGEQAGSPSKVKLPEGTRGRYVRIQLASPSNPLSLAEVQVRLEHHHHHHS
# Columns and labels:
# Experiment in all cases: glycan array binding signal (z-score within array); higher = stronger binding
# Details in all cases: glycan notation: IUPAC condensed, linker removed
# Neu5Ac(a2-8)Neu5Ac = biological target: Neu5Ac(a2-8)Neu5Ac
# Procedure, shortened: (§1)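 Glycan array data were curated from 3228 arrays in the Consortium for Functional Glycomics database and kept only where the protein sequence was available. Glycan names were converted to IUPAC-condensed notation, and columns mapping to the same glycan were averaged. The binding signal is a within-array Z-score, averaged across arrays of the same protein sequence at different concentrations or buffers and across linkers. Negative Z-scores can be read as non-binding.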
# [1] = biological target: Neu5Ac(a2-8)Neu5Ac(a2-3)Gal(b1-3)GalNAc(b1-4)[Neu5Ac(a2-3)]Gal(b1-4)Glc
# Procedure, shortened: as §1
# [2] = biological target: Neu5Ac(a2-8)Neu5Ac(a2-3)Gal(b1-3)GalNAc(b1-4)[Neu5Ac(a2-8)Neu5Ac(a2-3)]Gal(b1-4)Glc
# Procedure, shortened: as §1
# [3] = biological target: Neu5Ac(a2-8)Neu5Ac(a2-3)Gal(b1-4)Glc
# Procedure, shortened: as §1
# [4] = biological target: Neu5Ac(a2-8)Neu5Ac(a2-3)Gal(b1-4)GlcNAc
# Procedure, shortened: as §1
# [5] = biological target: Neu5Ac(a2-8)Neu5Ac(a2-3)[Gal(b1-3)GalNAc(b1-4)]Gal(b1-4)Glc
# Procedure, shortened: as §1
# [6] = biological target: Neu5Ac(a2-8)Neu5Ac(a2-3)[GalNAc(b1-4)]Gal(b1-4)Glc
# Procedure, shortened: as §1
# [7] = biological target: Neu5Ac(a2-8)Neu5Ac(a2-8)Neu5Ac
# Procedure, shortened: as §1
# [8] = biological target: Neu5Ac(a2-8)Neu5Ac(a2-8)Neu5Ac(a2-3)Gal(b1-4)Glc
# Procedure, shortened: as §1
# [9] = biological target: Neu5Ac(a2-8)Neu5Ac(a2-8)Neu5Ac(a2-3)[Gal(b1-3)GalNAc(b1-4)]Gal(b1-4)Glc
# Procedure, shortened: as §1
# [10] = biological target: Neu5Ac(a2-8)Neu5Ac(a2-8)Neu5Ac(a2-3)[GalNAc(b1-4)]Gal(b1-4)Glc
# Procedure, shortened: as §1
# [11] = biological target: Neu5Ac(a2-8)Neu5Ac(a2-8)Neu5Ac(a2-8)Neu5Ac(a2-3)[GalNAc(b1-4)]Gal(b1-4)Glc
# Procedure, shortened: as §1
# [12] = biological target: Neu5Ac(a2-8)Neu5Gc(a2-3)Gal(b1-4)GlcNAc
# Procedure, shortened: as §1
# [13] = biological target: Neu5Ac(b2-6)Gal(b1-4)GlcNAc
# Procedure, shortened: as §1
# Neu5Ac(b2-6)GalNAc = biological target: Neu5Ac(b2-6)GalNAc
# Procedure, shortened: as §1
# [14] = biological target: Neu5Ac9Ac(a2-3)Gal(b1-3)GlcNAc
# Procedure, shortened: as §1
# [15] = biological target: Neu5Ac9Ac(a2-3)Gal(b1-4)GlcNAc
# Procedure, shortened: as §1
# [16] = biological target: Neu5Ac9Ac(a2-6)Gal(b1-4)GlcNAc
# Procedure, shortened: as §1
# [17] = biological target: Neu5Gc(a2-3)Gal(b1-3)GlcNAc
# Procedure, shortened: as §1
# [18] = biological target: Neu5Gc(a2-3)Gal(b1-3)[Fuc(a1-4)]GlcNAc
# Procedure, shortened: as §1
# Neu5Gc(a2-3)Gal(b1-4)Glc = biological target: Neu5Gc(a2-3)Gal(b1-4)Glc
# Procedure, shortened: as §1
# [19] = biological target: Neu5Gc(a2-3)Gal(b1-4)GlcNAc
# Procedure, shortened: as §1
# [20] = biological target: Neu5Gc(a2-3)Gal(b1-4)GlcNAc(b1-3)Gal(b1-4)GlcNAc(b1-2)Man(a1-3)[Neu5Gc(a2-3)Gal(b1-4)GlcNAc(b1-3)Gal(b1-4)GlcNAc(b1-2)Man(a1-6)]Man(b1-4)GlcNAc(b1-4)GlcNAc
# Procedure, shortened: as §1
# [21] = biological target: Neu5Gc(a2-3)Gal(b1-4)[Fuc(a1-3)]GlcNAc
# Procedure, shortened: as §1
# [22] = biological target: Neu5Gc(a2-6)Gal(b1-4)GlcNAc
# Procedure, shortened: as §1
# Neu5Gc(a2-6)GalNAc = biological target: Neu5Gc(a2-6)GalNAc
# Procedure, shortened: as §1
# [23] = biological target: Neu5Gc(a2-8)Neu5Ac(a2-3)Gal(b1-4)GlcNAc
# Procedure, shortened: as §1
# [24] = biological target: Neu5Gc(a2-8)Neu5Gc(a2-3)Gal(b1-4)GlcNAc
# Procedure, shortened: as §1
# [25] = biological target: Neu5Gc(a2-8)Neu5Gc(a2-3)Gal(b1-4)GlcNAc(b1-3)Gal(b1-4)GlcNAc
# Procedure, shortened: as §1
# [26] = biological target: Neu5Gc(a2-8)Neu5Gc(a2-6)Gal(b1-4)GlcNAc
# Procedure, shortened: as §1
# [27] = biological target: Neu5Gc(b2-6)Gal(b1-4)GlcNAc
# Procedure, shortened: as §1
binder,measurement,setting,value
B1,glycan array binding signal (z-score),Neu5Ac(a2-8)Neu5Ac,-0.284
same,glycan array binding signal (z-score),[1],-0.521
same,glycan array binding signal (z-score),[2],-0.253
same,glycan array binding signal (z-score),[3],-0.55
same,glycan array binding signal (z-score),[4],-0.592
same,glycan array binding signal (z-score),[5],-0.226
same,glycan array binding signal (z-score),[6],-0.558
same,glycan array binding signal (z-score),[7],-0.449
same,glycan array binding signal (z-score),[8],-0.339
same,glycan array binding signal (z-score),[9],-0.494
same,glycan array binding signal (z-score),[10],-0.388
same,glycan array binding signal (z-score),[11],-0.261
same,glycan array binding signal (z-score),[12],-0.341
same,glycan array binding signal (z-score),[13],-0.312
same,glycan array binding signal (z-score),Neu5Ac(b2-6)GalNAc,-0.62
same,glycan array binding signal (z-score),[14],-0.339
same,glycan array binding signal (z-score),[15],-0.287
same,glycan array binding signal (z-score),[16],-0.548
same,glycan array binding signal (z-score),[17],0.239
same,glycan array binding signal (z-score),[18],0.103
same,glycan array binding signal (z-score),Neu5Gc(a2-3)Gal(b1-4)Glc,-0.051
same,glycan array binding signal (z-score),[19],0.071
same,glycan array binding signal (z-score),[20],0.548
same,glycan array binding signal (z-score),[21],-0.486
same,glycan array binding signal (z-score),[22],-0.317
same,glycan array binding signal (z-score),Neu5Gc(a2-6)GalNAc,-0.419
same,glycan array binding signal (z-score),[23],-0.341
same,glycan array binding signal (z-score),[24],-0.465
same,glycan array binding signal (z-score),[25],-0.268
same,glycan array binding signal (z-score),[26],-0.112
same,glycan array binding signal (z-score),[27],-0.474
